# Data taken from PubChem BioAssay AID886 (National Center for Advancing Translational Sciences (NCATS), 2007).
# Hit rate of the full screen: of about 73,000 compounds, about 2,500 (3.4%) were called active. The shares of active, inactive and inconclusive entries below differ from those in the screen. Calls come from the whole dose curve; as a rule, active = well fitted inhibition curve with a large enough effect; inconclusive = small, poorly fitted or top-dose-only effect; inactive = no such curve, though single readings can be large or run the other way. Potencies of inconclusive entries are doubtful fits and often do not repeat.
# Biological target: 3-hydroxyacyl-CoA dehydrogenase type-2 (Homo sapiens) (UniProt Q99714)
# Assay: qHTS Assay for Inhibitors of HADH2 (Hydroxyacyl-Coenzyme A Dehydrogenase, Type II); note: nearly all actives have a fitted effect of over 60% in size
# Conditions: recombinant HADH2, NADH fluorescence, beta-hydroxybutyryl-CoA; activity change, negative = inhibition: at 57.1 µM (top of the series)
# In short: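 NADH fluorescence (ex 360/em 450 nm) read every 30 s for 4 min; activity taken as last-minus-first time point difference. Enzyme 20 nM, NAD+ 1 mM, beta-hydroxybutyryl-CoA 90 uM, pH 9.0 Tris buffer.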
# % is set by controls: 0 for no effect and ±100 for the full control effect; potency is the fitted concentration of half-maximal effect; tags give direction and shape of the fitted curve.
# Chain of UniProt Q99714 (Q99714 whole entry, looked up): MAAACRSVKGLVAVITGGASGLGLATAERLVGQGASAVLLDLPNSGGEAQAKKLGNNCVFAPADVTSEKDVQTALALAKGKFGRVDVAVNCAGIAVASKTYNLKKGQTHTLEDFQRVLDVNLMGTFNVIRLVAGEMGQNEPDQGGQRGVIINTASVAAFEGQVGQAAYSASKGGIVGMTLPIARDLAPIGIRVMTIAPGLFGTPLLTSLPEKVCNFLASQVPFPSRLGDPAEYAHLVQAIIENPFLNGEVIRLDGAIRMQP
# Chain of UniProt Q99714 (Q99714 whole entry, looked up): as above
SMILES,"activity change, negative = inhibition",Potency
CCOC(=O)CC(N)c1ccc(OC)cc1 (centres undefined),inactive: -1%,
CN(C)CCCNC(=O)c1ccc2[nH]c3ccccc3c2c1,,active: 25.1 µM
COc1cc2ccccc2cc1C(=O)OCC(=O)N1CCOCC1,,"inconclusive: 31.6 µM [inhibitor, single point]"
O=C1C2C3c4ccccc4C(c4ccccc43)C2C(=O)N1Cc1ccco1 (centres undefined),inactive: -24.4% [at 11.4 µM],
O=C1Nc2ccc(S(=O)(=O)NCc3ccco3)c3cccc1c23,,"inconclusive: 20 µM [inhibitor, single point]"
N#Cc1cc2c(nc1SCc1cccnc1)CCCC2,,"inconclusive: 10 µM [inhibitor, partial curve]"
CC1=C(C(=O)O)N2C(=O)[C@@H](NC(=O)[C@@H](N)C3=CCC=CC3)[C@@H]2SC1,,"inconclusive: 7.94 µM [inhibitor, full curve]"
Cc1oc(-c2ccc(Cl)cc2)cc1-c1nn2c(-c3ccco3)nnc2s1,,"inconclusive: 39.8 µM [inhibitor, single point]"
CCn1c(SC(=O)NC2CCCCC2)nnc1-c1cccs1,,"inconclusive: 31.6 µM [inhibitor, partial curve]"
Cc1cc(C)n2nc(C(=O)NCc3ccco3)nc2n1,inactive: -6.29%,
Cc1onc(-c2ccccc2Cl)c1C(=O)NCc1ccco1,,"inconclusive: 39.8 µM [inhibitor, single point]"
COc1ccc(N2CCN(C(=O)CSc3nnc(C)c(=O)[nH]3)CC2)cc1,,"inconclusive: 15.8 µM [inhibitor, partial curve]"
O=C(CSc1nc2ccccc2s1)c1sc2sc3ccccc3[n+]2c1O,,active: 3.16 µM
C=C(C)Cn1c(COc2ccccc2)nnc1SCC(=O)O,inactive: -2.71%,
Cc1noc(C)c1-c1cncnc1NC1CC1,,"inconclusive: 20 µM [inhibitor, partial curve]"
Nc1cc(C(=O)O)ccc1Nc1ccccc1,,"inconclusive: 6.31 µM [inhibitor, single point]"
O=Cc1ccccc1Cl,inactive: -3.99%,
COCCn1nnnc1SCC(=O)c1ccc(F)cc1,,"inconclusive: 39.8 µM [inhibitor, single point]"
O=C1C2C3C=CC(C3)C2C(=O)N1c1ncn[nH]1 (centres undefined),inactive: 2.97%,
Cc1nc2oc3c(NCc4ccccc4)ncnc3c2c2c1COC(C)(C)C2,,active: 25.1 µM
O=C(Nc1ccc2c(c1)OCO2)C1CCCCN1S(=O)(=O)c1ccc(F)cc1 (centres undefined),inactive: -2.53%,
Fc1cccc(-c2cc3nc4c(c(N5CCOCC5)n3n2)CCCC4)c1,,active: 25.1 µM
CCOP(=O)(c1ccccc1Cl)C1(O)CCCCC1 (centres undefined),,"inconclusive: 2.51 µM [inhibitor, partial curve]"
COc1ccc(C2C(C#N)=C(N)Oc3cc(O)ccc32)cc1OC (centres undefined),,"inconclusive: 7.94 µM [inhibitor, partial curve]"
Cc1ccc(C(=O)c2cc3c(cc2N)OCCO3)cc1,inactive: -6.27%,
CC(=O)c1ccsc1B(O)O,inactive: -1.67%,
c1csc(Cn2c(-c3cccs3)nc3ccccc32)c1,,active: 20 µM

SMILES,"activity change, negative = inhibition",Potency
Oc1c(CN2CCOCC2)ccc(CN2CCOCC2)c1O,,active: 0.316 µM
CCN1CCN(CCCNC(=O)c2cc3cc4ccc(OC)cc4nc3o2)CC1,,"inconclusive: 0.631 µM [inhibitor, partial curve]"
O=C(Cc1ccc(S(=O)(=O)N2CCCC2)s1)Nc1nc2c(s1)CCCC2,,active: 15.8 µM
COc1ccc(C(=O)CSc2nc3nc(C)cc(C)n3n2)cc1OC,,"inconclusive: 0.0631 µM [inhibitor, full curve, poor fit]"
CCn1cc(C(=O)Nc2nncs2)c(=O)c2cc(F)c(N3CCN(C(=O)c4ccco4)CC3)cc21,inactive: 19.6%,
CCc1nc(SCCO)c2oc3ccccc3c2n1,inactive: 1.17%,
Cc1nc2cc(NC(=O)NCc3ccco3)ccc2n1C,inactive: -0.617%,
Cc1cc(C)c2c(=O)n(CC(=O)N3CCC(N4CCCCC4)CC3)sc2n1,,active: 0.199 µM
CC(C)(C)[C@@]1(O)CCN2C[C@@H]3c4ccccc4CCc4cccc(c43)[C@@H]2C1,,inactive
CCOC(=O)N1CCN(S(=O)(=O)c2ccc(C)c(C)c2C)CC1,,"inconclusive: 0.0316 µM [inhibitor, full curve, poor fit]"
Cc1cc(=O)n2c(-c3ccccc3C)n[nH]c2n1,inactive: -14.6%,
Cc1nc2c(O)cccc2c(=O)[nH]1,inactive: -5.17%,
CN(Cc1ccco1)c1ncncc1-c1cccc(NS(C)(=O)=O)c1,,"inconclusive: 10 µM [inhibitor, partial curve]"
O=C(CSc1ccc2nnc(-c3ccc(Cl)cc3)n2n1)N1CCN(c2ccccc2)CC1,inactive: -7.37%,
CC(NCCO)C(=O)C12CC3CC(CC(C3)C1)C2 (centres undefined),,active: 31.6 µM
O=C(c1csc(Nc2ccccc2Cl)n1)N1CCCC1,,"inconclusive: 31.6 µM [inhibitor, single point]"
Cc1ccc2c(c1)c1ncnc(N3CCN(c4ccccc4)CC3)c1n2C,,"inconclusive: 39.8 µM [inhibitor, single point]"
CCCOc1ccc(Br)cc1-c1cc(-c2ccc(Cl)cc2)[nH]c1-c1ccncc1,inactive: 1.8%,
Cc1c(C(=O)N2CCOCC2)oc2c1C(=O)CC(C)(C)C2,,"inconclusive: 31.6 µM [inhibitor, single point]"
COc1ccc(CNc2ncnc3ccc(-c4ccc5c(c4)OCO5)cc23)c(OC)c1,,"inconclusive: 39.8 µM [inhibitor, single point]"
Cc1cnc(CNc2ncncc2-c2ccccc2CN(C)C)cn1,,active: 12.6 µM
O=C(CSc1cccc2cccnc12)NCc1ccco1,,"inconclusive: 31.6 µM [inhibitor, single point]"
COC(=O)c1sccc1NC(=O)c1csc2c1CCCC2,,"inconclusive: 31.6 µM [inhibitor, single point]"
Cc1cc(C)nc(N2CCN(c3nc(C)nc4c3oc3ccccc34)CC2)n1,,"inconclusive: 6.31 µM [inhibitor, single point]"
Cc1ccc(-c2nc3cc(C)ccc3o2)cc1,,active: 31.6 µM
COc1ccc(CNc2nc(-c3ccccc3OC)nc3ccccc23)c(OC)c1,,"inconclusive: 39.8 µM [inhibitor, single point]"
CCC(Sc1nnnn1C)C(=O)Nc1ccc(C(C)=O)cc1 (centres undefined),,"inconclusive: 1.58 µM [inhibitor, partial curve, poor fit]"

SMILES,"activity change, negative = inhibition",Potency
CC(c1ccccc1)C1C(C#N)=C(N)SC(N)=C1C#N (centres undefined),,"inconclusive: 15.8 µM [inhibitor, partial curve]"
C[C@]12CC[C@H]3c4ccc(O)cc4CC[C@@H]3[C@H]1CC[C@@H]2OC(=O)CCC1CCCC1,inactive: 4.98% [at 11.4 µM],
COc1ccc(O)c(-c2c(-c3ccc(Cl)cc3)n[nH]c2C)c1,,"inconclusive: 31.6 µM [inhibitor, single point]"
c1ccc(Cn2c(-c3ccco3)nc3nc4ccccc4nc32)cc1,,active: 31.6 µM
COc1ccc(N2C(=O)c3cccc4cccc(c34)C2=O)nn1,,"inconclusive: 31.6 µM [inhibitor, single point]"
NCCCCN,inactive: -12.7%,
O=S(=O)(c1ccc(Cl)cc1)N1CCN(c2ccc(N3CCOCC3)nn2)CC1,inactive: 18.1%,
COc1ccc(CNc2cc(-c3ccoc3)ncn2)c(OC)c1,,"inconclusive: 3.16 µM [inhibitor, full curve]"
CCN1CCN(c2cc(C)c3cc(NC(=O)c4cncc(Br)c4)ccc3n2)CC1,inactive: -13.3%,
COC(=O)c1ccc(CSc2nc3c(cnn3-c3ccc(F)cc3)c(=O)[nH]2)o1,,"inconclusive: 15.8 µM [inhibitor, partial curve]"
CCOC(=O)C1=C(C)NC2=C(C(=O)CC(C)(C)C2)C1c1cccc(C)n1 (centres undefined),,"inconclusive: 31.6 µM [inhibitor, single point]"
Cc1ccc(-c2nnn(CC(=O)N(Cc3ccccc3)C(C(=O)NC3CCCC3)c3ccncc3)n2)o1 (centres undefined),inactive: 18%,
CNC(=O)c1[nH]cnc1C(=O)Nc1cccc(OC)c1,,"inconclusive: 15.8 µM [inhibitor, partial curve]"
CCOC(=O)N1CCN(c2c(-c3ccccc3)c3cc(Cl)ccc3[nH]c2=O)CC1,,"inconclusive: 39.8 µM [inhibitor, single point]"
c1ccc(-c2ccc(-c3nc(-c4ccccn4)no3)cc2)cc1,,"inconclusive: 31.6 µM [inhibitor, single point]"
N#Cc1nc(-c2ccco2)oc1N1CCC(C(N)=O)CC1,,active: 25.1 µM
CCN(Cc1ccncc1)C(=O)[C@@H](CO)c1ccccc1,,"inconclusive: 39.8 µM [inhibitor, single point]"
CN(C)S(=O)(=O)c1cccc(C(=O)NCCc2ccccc2)c1,inactive: -0.478%,
O=C1CC(c2ccc(F)cc2)Cc2nc(N3CCN(c4ccccc4)CC3)ncc21 (centres undefined),,"inconclusive: 6.31 µM [inhibitor, single point]"
CCOc1ccc2nc(C)cc(C(=O)O)c2c1,,active: 15.8 µM
COc1ccc2[nH]c(C)c(CN3CCC(C)CC3)c(=O)c2c1,inactive: 4.32% [at 11.4 µM],
N#Cc1nc(-c2ccco2)oc1NCc1ccc(F)cc1,,"inconclusive: 31.6 µM [inhibitor, single point]"
COc1ccc2nc(NCCCNC(=O)c3cc(OC)c(OC)c(OC)c3)c(C#N)cc2c1,,"inconclusive: 39.8 µM [inhibitor, single point]"
CCC(=O)Nc1ccc(NC(=O)c2ccccn2)cn1,,"inconclusive: 39.8 µM [inhibitor, single point]"
Cc1ccccc1NC(=O)CSc1nc(N)c(C#N)cc1C#N,,"inconclusive: 31.6 µM [inhibitor, single point]"
